Source: the supplement of paper PMC10126150
Sequences with one replicate were seen in a single cluster, so their values are uncertain.

system: ATP; experiment: switch fluorescence ratio, 500 uM ATP over buffer (Cy3 cluster intensity, sum of 5 cycles each) (fold (ratio)); higher = stronger signal-on switching upon ATP binding; sequences stand for … in TCGTCGGCAGCGTCAGATGTGTATAAGAGACAGTTTTTTTTTTTTTTTTTTTTTTTTT…TC; settings: aptamer strand: ATP DNA aptamer (quencher-CACCTGGGGGAGTATTGCGGAGGAAGG + anchor), 100 nM annealed; ATP concentration: 500 uM; one replicate
Method in brief: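 Switching-strand clusters labelled with Cy3 on a modified Illumina MiSeq flow-cell were annealed to 100 nM quencher-labelled ATP aptamer, imaged in selection buffer, and re-imaged after 15 min with 500 uM ATP at 22 °C. This was done over five cycles with NaOH stripping and re-annealing in between. The fluorescence ratio is summed target-cycle over summed buffer-cycle Cy3 intensity per cluster, averaged per switch-domain sequence, excluding clusters outside 100-1000 RFU.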
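Note: ATP exposure 15 min at 22 °C before imaging.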

Sequence	switch fluorescence ratio
TTGGGAGTA	0.996
CAAGTTTCAC	0.99
AAGGCAGCTT	0.998
GAGATTAAAT	1
CTGTGTATTT	1.04
TATCCAGGTA	1.08
AAGGACAATC	1.09
GGGGCGCGAT	1.03
GAGCTTGTG	0.97
CTCGTGCGAG	1.08
GGCAGAGGGG	0.984
ATGCGGATCG	0.976
CACATCGGGA	1.03
GCGGACGGGA	1.01
GGGCTGAGGT	0.982
TAGCGGGCG	0.987
TCGTAAACAA	1.02
ATGGTAGTGT	1.02
GACTCGAGCC	1.01
ACTTTTGTTG	0.947
CGGTAATAGT	1.14
TCGAAAGAGG	1.04
TCATCTTCAA	1.09

Sequence	switch fluorescence ratio
GCGTGAGTTT	1.09
AAATGGGGCC	1.02
TTATAATTGC	0.975
CTCGACAATA	4.42
ACGGACGGGC	1.39
GTTCTATGGC	1.06
GATCGTAGCA	0.99
AGTAGCAAGT	1.18
ATTGATGC	0.992
TTGCCTATGG	1.03
ACATTGATCC	1.05
TATCGGGTG	1.03
CTCTCCTTCT	1.07
ACGGCATGCT	1.01
GGCAGGCACG	0.981
GAGTGAACGA	1.06
GTCTGGCC	1
CTATGGTGTA	0.984
ACACTTAACA	1.08
GTGGTAGGTG	0.952
GAGGTAGACA	1
GATCTGGGA	1
GTCAAAGTAG	1

Sequence	switch fluorescence ratio
TCTTTGGGA	1.01
CGTTAGAGGT	0.998
GAAGTATTGG	1.04
CAAGTTACCC	1.1
AAGATCGGTT	0.968
GGGGTGACTT	1
AAAAAACAGG	0.97
TGTGATTAC	0.984
GGTCTTGGTG	0.984
GGCATCAGTG	0.98
TGGTCCATGT	0.96
GACAGAACAC	1.11
CTGCTAGAAT	1.03
TCGTGCTACG	1.03
TGTGTCTCTC	1.02
ACTTACATTA	1.26
ATAGAGGGC	1.06
ATCTTAACAC	1.01
CCAATCAACC	1.03
GTCAACGAAG	0.984
CTAGCCTGCC	0.983
CATGATTATA	0.988
TTAGATGGC	1.13

Sequence	switch fluorescence ratio
ATCTACGATG	1.02
TCAATCATTA	1.04
TCGCGGATGC	1.4
GATTTTTA	0.944
ATGAACCCGT	1.04
AACCTAAAGG	1.02
TAACGGGCTC	1.02
CACCGGGCAA	1.29
TTTAGATCAT	1.01
GCAAAAGCGT	0.976
GAAGCCCGTT	0.995
AGGATTGTCC	0.996
CGTGGTCGCA	0.995
TAACTTCGAT	1.01
ACAAGAATAG	1.02
TCTGCTAGGA	1.04
ATTGAGTGTA	1.02
GCACGTGCCG	0.928
AAAAGACCCA	1.02
ACGATCGTGT	0.967
CTCTAGATAA	1.71
GGGTGCGCAC	1.08
AGAGTCTAAT	0.968

Sequence	switch fluorescence ratio
ATTTTAAG	1
TGTTTTCCGT	1.02
GAACGATGGT	0.949
TGCCCAGTAG	1.17
AAAGGGCAGA	0.994
ATCCCAGTGG	1.16
AAGCTCCCTC	1.18
TTGGAGCTTG	1
ACCTTGTATT	1.02
ACGACAAAAA	1.11
TGTTTGGTAC	1.03
GGTTGGCGCG	0.991
CCACGTCTTT	1.01
TATGGCCCTA	0.986
AGGTCTCAGC	0.997
ATCCCACGG	1.12
GCGTATTAAA	1
CGCAACTGTT	1.22
GCTAACGGAC	1.33
TCGGTTATTG	0.992
TTAAAAACGA	1.28
TAATCAGACT	1.08
GACGATAATT	1.08

Sequence	switch fluorescence ratio
CGGGCTGGA	1.04
ATCCTCTAGT	1.01
TAGAGAATTG	1.05
CTTAGGGCA	0.93
ACAGGAGGCT	1.03
CAGGTTCAGA	1.03
CTGCCCTTTG	0.995
ATAATATCCA	1.04
ATTGGAGAAA	0.99
GAATGCGGAG	1
TAAGTTCGGT	0.966
AGGTAGCGAT	1.15
AAGCGAGATC	1.06
CGTTGGTC	0.97
TTGAGAGGCT	0.984
TTCTTAGTGA	1
TTAATAGTCG	0.997
AATGCTTACT	1
AGATAGGGTG	1.03
CTCTATATGG	0.948
TTTGAATCGT	0.962
TAAGGCTGTC	0.929
TCAATTCAGT	0.965

Sequence	switch fluorescence ratio
GGGAAATACA	1.02
AAGCAAGTCC	1.38
CCGGCAGTTG	1.15
CATCAAAGGT	0.985
GAGATTTTAC	1.02
CTTTTATGCC	1
TTGAACTTGG	0.993
CCAGCTTAGT	1.01
TTGATAACTT	1.03
GCCGACCCTA	1.02
GGCTGGCCGG	0.953
GCTCGGAAGC	1.04
CTGTTCTATT	1
TCAATCAAGA	1.02
GAATGTTCTA	1.01
CCGTCTGC	1.22
AAGGTGGCAG	0.992
TGCTTGATAG	0.982
TTTAAGGTG	1.44
GCGTCCAGTC	1.07
